Reference: the supplement of paper PMC10126150
Values marked as one replicate rest on one cluster of the flow cell; about a third of the high ones do not repeat.

Each sequence was assayed on ATP (assay: switch fluorescence ratio, 500 uM ATP over buffer (Cy3 cluster intensity, sum of 5 cycles each) (fold (ratio)); higher = stronger signal-on switching upon ATP binding; sequences stand for … in TCGTCGGCAGCGTCAGATGTGTATAAGAGACAGTTTTTTTTTTTTTTTTTTTTTTTTT…TC). Details: aptamer strand: ATP DNA aptamer (quencher-CACCTGGGGGAGTATTGCGGAGGAAGG + anchor), 100 nM annealed; ATP concentration: 500 uM; one replicate.
Summary of the method: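 After annealing to 100 nM quencher-labelled ATP aptamer, Cy3-labelled switching-strand clusters on a modified Illumina MiSeq flow-cell were imaged in selection buffer. A second image followed after 15 min with 500 uM ATP at 22 °C, and five such buffer/ATP cycles were done, each separated by NaOH stripping and re-annealing. The fluorescence ratio, averaged per switch-domain sequence, is summed target-cycle over summed buffer-cycle Cy3 intensity per cluster, with clusters outside 100-1000 RFU excluded.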
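Further: ATP exposure 15 min at 22 °C before imaging.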

| Sequence | switch fluorescence ratio |
| --- | --- |
| CTGTGGGGTT | 1.03 |
| CTGTGTACGC | 1.01 |
| CTGTGTAGGA | 1.01 |
| CTGTGTGTAT | 0.98 |
| CTGTGTTGGC | 1.01 |
| CTGTGTTTTC | 1.01 |
| CTGTTAAACG | 0.956 |
| CTGTTAAGG | 0.987 |
| CTGTTAGAT | 0.985 |
| CTGTTAGTGG | 0.982 |
| CTGTTGACGT | 0.975 |
| CTGTTGGATG | 1.01 |
| CTGTTTAAAG | 0.971 |
| CTGTTTTCAA | 0.938 |
| CTGTTTTTCT | 0.95 |
| CTTAACGTTA | 1.05 |
| CTTAACTTAT | 1.01 |
| CTTACACGTT | 1.02 |
| CTTACAGCTG | 0.985 |
| CTTACCCGCT | 3.52 |
| CTTACCTGAA | 1.09 |
| CTTACGGTTT | 1 |
| CTTAGAAAGG | 0.957 |
| CTTAGAATTC | 0.971 |
| CTTAGACCGT | 0.989 |
| CTTAGATAAT | 1.03 |

| Sequence | switch fluorescence ratio |
| --- | --- |
| CTTAGGACAA | 1.01 |
| CTTAGGTTGC | 0.998 |
| CTTAGTACCA | 0.915 |
| CTTAGTTACA | 1.03 |
| CTTATAATGG | 1.04 |
| CTTATATACG | 0.99 |
| CTTATATATT | 1.03 |
| CTTATATCAA | 0.98 |
| CTTATATGCA | 1.09 |
| CTTATCCAAT | 1.04 |
| CTTATCGATG | 0.951 |
| CTTATGAGTA | 0.999 |
| CTTATGCATC | 1.1 |
| CTTATGGCTG | 0.953 |
| CTTATGGGAC | 0.991 |
| CTTATTATGC | 0.996 |
| CTTATTGCCA | 1.34 |
| CTTATTGGTC | 0.999 |
| CTTCAACCGA | 1.3 |
| CTTCAGGAAC | 0.996 |
| CTTCATACGT | 1.39 |
| CTTCATCAGT | 1.08 |
| CTTCCACTT | 1.07 |
| CTTCCGTACG | 2.78 |
| CTTCCGTGGT | 1.75 |
| CTTCCTAGGG | 1.18 |

| Sequence | switch fluorescence ratio |
| --- | --- |
| CTTCCTATGT | 1.23 |
| CTTCGATCAT | 1.03 |
| CTTCGATGGC | 1.1 |
| CTTCGCGTCT | 1.03 |
| CTTCGTATAT | 1.77 |
| CTTCTAAAAG | 0.944 |
| CTTCTACAAC | 1.16 |
| CTTCTCGCAC | 5.59 |
| CTTCTGAAGT | 1.16 |
| CTTCTTTCGC | 2.63 |
| CTTGAACGCC | 1.09 |
| CTTGAATAAC | 1.01 |
| CTTGACGGAC | 1.18 |
| CTTGACGGGG | 0.946 |
| CTTGAGGACA | 1.01 |
| CTTGAGTTGT | 1.01 |
| CTTGATACGT | 1.02 |
| CTTGATCGAA | 1.01 |
| CTTGATGCTT | 0.989 |
| CTTGATTAGC | 1 |
| CTTGCAAACA | 1.08 |
| CTTGCTACAA | 1.08 |
| CTTGCTCAGT | 1.07 |
| CTTGCTGAAG | 0.997 |
| CTTGCTTTAA | 1.04 |
| CTTGGAGATG | 0.996 |

| Sequence | switch fluorescence ratio |
| --- | --- |
| CTTGGATTGG | 0.992 |
| CTTGGCAACG | 1.04 |
| CTTGGCAGCA | 1.02 |
| CTTGGTCAAC | 1.04 |
| CTTGGTGAAA | 0.991 |
| CTTGGTGGTA | 0.957 |
| CTTGTAAAAA | 1.08 |
| CTTGTACAGT | 0.971 |
| CTTGTATTCG | 0.95 |
| CTTGTCACTT | 1.04 |
| CTTGTGCT | 0.977 |
| CTTGTTACG | 1.05 |
| CTTGTTAGTT | 1.02 |
| CTTGTTGGGC | 1.03 |
| CTTGTTGTGA | 0.955 |
| CTTGTTTCG | 0.982 |
| CTTTAAAATC | 0.992 |
| CTTTAATTAA | 1.02 |
| CTTTACCGTT | 0.999 |
| CTTTAGCTGT | 0.973 |
| CTTTAGTTAG | 0.979 |
| CTTTATGTAC | 1.07 |
| CTTTATTGA | 1 |
| CTTTATTTGA | 0.964 |
| CTTTCA | 1.01 |
| CTTTCTGTCA | 1.02 |

| Sequence | switch fluorescence ratio |
| --- | --- |
| CTTTCTGTGG | 0.991 |
| CTTTGAACGG | 1.02 |
| CTTTGATATA | 1.01 |
| CTTTGCGCTA | 1.14 |
| CTTTGGACAA | 1.02 |
| CTTTGGGCCT | 1.43 |
| CTTTGTGTCA | 1.03 |
| CTTTTAACCG | 1.05 |
| CTTTTACAAT | 0.994 |
| CTTTTATGTG | 0.935 |
| CTTTTGAGAT | 1.01 |
| CTTTTGCCGT | 0.948 |
| CTTTTGGAC | 1.03 |
| CTTTTGTCG | 1.03 |
| CTTTTGTCTT | 0.996 |
| CTTTTTTTG | 0.955 |
| GAAAAAAAG | 0.973 |
| GAAAAAGATG | 0.963 |
| GAAAACAATC | 0.985 |
| GAAAACGGAG | 0.961 |
| GAAAACTTCG | 1.3 |
| GAAAAGCGTT | 1.09 |
| GAAAAGTGCG | 0.999 |
| GAAAATAC | 1.1 |
| GAAACCATTC | 1.36 |
| GAAACCGTAT | 1.04 |

| Sequence | switch fluorescence ratio |
| --- | --- |
| GAAACGAGG | 0.975 |
| GAAACGCTAA | 1.14 |
| GAAACTGGGA | 0.983 |
| GAAAGAGTCT | 1.1 |
| GAAAGAGTTT | 1.02 |
| GAAAGATCAT | 0.99 |
| GAAAGCCAAC | 1.06 |
| GAAAGCCGTT | 0.935 |
| GAAAGGAGGC | 0.963 |
| GAAAGGCTTA | 0.984 |
| GAAAGGTGCA | 0.995 |
| GAAAGTCTTG | 0.974 |
| GAAATGCCGC | 0.965 |
| GAAATGCGG | 0.971 |
| GAAATTTTGG | 0.998 |
| GAACAAACTA | 1.02 |
| GAACAAGCCC | 1.01 |
| GAACAGGTCG | 1.03 |
| GAACCGAAAT | 1.1 |
| GAACCGAGGT | 1.04 |
| GAACCGGGG | 1.05 |
| GAACCTCAA | 1 |
| GAACCTCTAC | 1.46 |
| GAACGCTGAG | 1.14 |
| GAACGGGCAT | 1 |
| GAACGGTCCC | 1.01 |

| Sequence | switch fluorescence ratio |
| --- | --- |
| GAACGTTGGA | 0.987 |
| GAACGTTTCT | 1 |
| GAACTAGTCC | 1.03 |
| GAACTAGTGC | 0.945 |
| GAACTATTAT | 1.01 |
| GAACTCACAT | 1.11 |
| GAACTCGGGA | 0.974 |
| GAACTGGGTC | 0.999 |
| GAACTGTGAA | 0.973 |
| GAACTTGAGG | 0.995 |
| GAAGAAAACG | 0.891 |
| GAAGAAGAGC | 1.03 |
| GAAGACTTGT | 0.981 |
| GAAGAGGACT | 1.01 |
| GAAGATAGAG | 1.01 |
| GAAGATCAGC | 0.935 |
| GAAGATCTAG | 1.02 |
| GAAGCAGCTA | 1.17 |
| GAAGCCAATC | 3.59 |
| GAAGCCTTAA | 1.14 |
| GAAGCGATAG | 4.94 |
| GAAGCGGGGA | 0.992 |
| GAAGCTTATT | 1.01 |
| GAAGGAAGGG | 1.04 |
| GAAGGACACG | 0.968 |
| GAAGGACTG | 1.05 |

| Sequence | switch fluorescence ratio |
| --- | --- |
| GAAGGAGAAT | 1.02 |
| GAAGGCCGGA | 1.05 |
| GAAGGCGTTG | 0.967 |
| GAAGGGAAGC | 0.977 |
| GAAGGGCTTA | 0.987 |
| GAAGGGTAA | 1.02 |
| GAAGGTAAAA | 0.961 |
| GAAGTAGCGC | 1.05 |
| GAAGTATAGT | 0.983 |
| GAAGTCAGTC | 1.04 |
| GAAGTCCGTT | 0.966 |
| GAAGTCGCCC | 1.02 |
| GAAGTGTAAT | 1.03 |
| GAAGTTCTTA | 0.981 |
| GAATAAATGA | 0.985 |
| GAATAAGTAT | 0.999 |
| GAATAAGTGT | 1 |
| GAATACGACC | 3.79 |
| GAATATACGG | 1.04 |
